Out of some 390,000 compounds screened, about 17,000 (4.4%) were called active. The shares of active, inactive and inconclusive entries below differ from those in the screen. Calls come from the whole dose curve; as a rule, active = well fitted inhibition curve with a large enough effect; inconclusive = small, poorly fitted or top-dose-only effect; inactive = no such curve, though single readings can be large or run the other way. Where the call is inconclusive, the potency comes from a doubtful curve fit. Some compounds were tested as several samples or in several runs, with calls that do not always agree.
target: Lysine-specific demethylase 4A (Homo sapiens) (UniProt O75164); assay: qHTS Assay for Inhibitors of JMJD2A-Tudor Domain; details: AlphaScreen JMJD2A-Tudor / H3K4me3 peptide binding; activity change, negative = inhibition: at 114 µM (top of the series); note: nearly all actives have a fitted effect of over 50% in size
Chain of UniProt O75164 (O75164 whole entry, looked up, the tested form may be a part): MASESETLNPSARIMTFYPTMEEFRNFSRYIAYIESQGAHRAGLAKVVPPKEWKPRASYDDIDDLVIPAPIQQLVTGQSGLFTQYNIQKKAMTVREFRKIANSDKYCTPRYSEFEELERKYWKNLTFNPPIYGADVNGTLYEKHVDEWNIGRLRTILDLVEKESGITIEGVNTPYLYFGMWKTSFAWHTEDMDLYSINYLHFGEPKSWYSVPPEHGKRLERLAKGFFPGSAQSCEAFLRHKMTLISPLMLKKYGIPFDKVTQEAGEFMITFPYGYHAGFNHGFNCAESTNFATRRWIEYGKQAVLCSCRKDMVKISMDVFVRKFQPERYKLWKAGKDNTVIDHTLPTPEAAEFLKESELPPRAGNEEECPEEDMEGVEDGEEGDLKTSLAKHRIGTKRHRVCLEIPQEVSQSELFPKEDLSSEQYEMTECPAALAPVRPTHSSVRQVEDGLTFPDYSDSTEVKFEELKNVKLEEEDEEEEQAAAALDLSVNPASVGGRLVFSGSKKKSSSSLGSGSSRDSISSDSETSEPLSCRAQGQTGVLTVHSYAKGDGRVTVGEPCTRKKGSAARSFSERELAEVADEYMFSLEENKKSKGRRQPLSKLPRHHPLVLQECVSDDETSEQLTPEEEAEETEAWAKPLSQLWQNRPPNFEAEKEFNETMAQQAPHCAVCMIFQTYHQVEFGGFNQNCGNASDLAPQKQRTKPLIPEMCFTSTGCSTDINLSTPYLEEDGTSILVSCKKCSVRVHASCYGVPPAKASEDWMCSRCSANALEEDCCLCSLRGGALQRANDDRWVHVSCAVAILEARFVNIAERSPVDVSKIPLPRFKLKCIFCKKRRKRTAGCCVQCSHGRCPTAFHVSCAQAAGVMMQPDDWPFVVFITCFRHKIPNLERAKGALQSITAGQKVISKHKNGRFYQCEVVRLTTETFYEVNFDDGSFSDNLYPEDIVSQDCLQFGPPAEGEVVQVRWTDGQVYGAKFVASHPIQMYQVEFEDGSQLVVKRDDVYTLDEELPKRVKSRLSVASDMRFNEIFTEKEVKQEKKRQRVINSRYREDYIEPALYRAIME
% is set by controls: 0 for no effect and ±100 for the full control effect; potency is the fitted concentration of half-maximal effect; tags give direction and shape of the fitted curve.

SMILES	Potency	activity change, negative = inhibition
COc1cc2c(cc1OC)C(CSc1ccccc1C(=O)O)=NC(C)(C)C2	inconclusive: 50.1 µM [inhibitor, partial curve]	
CN1CCOc2ccc(S(=O)(=O)NCCc3ccc(Cl)cc3)cc21	inconclusive: 89.1 µM [inhibitor, single point]	
O=[N+]([O-])c1cccc(-c2c(-c3ccccc3)ncc3ccc(F)cc23)c1	inconclusive: 50.1 µM [inhibitor, partial curve, poor fit]	
CN(C)CCCN(C(=O)c1cc2ccccc2oc1=O)c1nc2ccc(F)cc2s1		inactive: -15.3%
C[C@@H](CN1C(=O)C(=O)NC[C@@H]1Cc1ccc(O)cc1)NC(=O)Cc1ccccc1		inactive: -27.1%
Cc1onc(-c2ccccc2Cl)c1C(=O)N1CC(C)OC(C)C1 (stereo unspecified)	inconclusive: 20 µM [inhibitor, partial curve, poor fit]	
O=C(CNC(=S)N(Cc1ccccc1)Cc1cccnc1)NC1CCCCC1		inactive: 1.05%
COc1ccc(Nc2nc(-c3cccc(OC)c3O)nc3ccccc23)cc1	inconclusive: 20 µM [inhibitor, full curve]	
CCOc1ccccc1CN1CCNC(=O)C1CC(=O)NC1CCCCCC1 (stereo unspecified)	inconclusive: 15.8 µM [inhibitor, full curve]	
COc1ccc(Cn2c(-c3ccc(Br)cc3)c[n+]3ccccc23)cc1		inactive: -12%
O=C1OCC(c2ccc(Cl)s2)=C1c1ccccc1[N+](=O)[O-]	inconclusive: 63.1 µM [inhibitor, single point]	
O=C(c1ccccc1)c1ccc(OCC(O)CNC2CCCc3ccccc32)cc1 (stereo unspecified)	active: 10 µM	
CC1=CCC(C(=O)O)C(C(=O)NC2CCCCC2)C1 (stereo unspecified)	active: 56.2 µM	
Oc1ccccc1C=NN1CCCCCC1	active: 44.7 µM	
COC(=O)C1=C(CN2CCCc3ccccc32)NC(=O)NC1c1ccc(F)cc1 (stereo unspecified)	inconclusive: 56.2 µM [inhibitor, partial curve]	
COC(=O)c1[nH]c2cc(C)ccc2c1NC(=O)CN1CCN(c2ccccc2OC)CC1	inconclusive: 56.2 µM [inhibitor, partial curve]	
COC/C=C/C1=CC2=CC(=O)C(C)(OC(=O)c3cnc4ccccc4n3)C(=O)C2=CN1CCCOC(C)C (stereo unspecified)	inconclusive: 89.1 µM [inhibitor, partial curve]	
N#Cc1ccccc1OCCCN1CCC(Cc2ccccc2)CC1	active: 4.47 µM	
CCOc1cc(NC(=O)c2ccccc2C(=O)O)c(OCC)cc1NC(=O)c1ccccc1F	inconclusive: 50.1 µM [inhibitor, partial curve]	
Cc1cc(=O)n2nc(N3CCC(C(=O)NCc4cccnc4)CC3)sc2n1		inactive: -15.6%
CN(c1ccc(OCC(=O)OCC(=O)Nc2ccccc2)cc1)S(=O)(=O)c1cccs1		inactive: -24.7%
CCc1ccccc1NC(=O)CN(C)Cc1nc(N)nc(Nc2ccccc2C)n1	inconclusive: 70.8 µM [inhibitor, partial curve, poor fit]	
CCOC(=O)C1=NN(C(=O)c2ccc(OC)cc2)C(O)(c2ccc(Cl)cc2)C1 (stereo unspecified)	inconclusive: 35.5 µM [inhibitor, partial curve]	
C=CCN=C1N[C@@H](c2ccccc2)C(C(=O)OC)=C(C)N1CCOC	inconclusive: 25.1 µM [inhibitor, partial curve]	

SMILES	Potency	activity change, negative = inhibition
Cc1ccc(C(=O)c2oc3ccccc3c2NC(=O)c2cc(-c3ccc(Cl)cc3)on2)cc1		inactive: -13.9%
c1ccc(C2=Nn3c(nnc3-c3n[nH]c4c3CCC4)SC2)cc1	inconclusive: 79.4 µM [inhibitor, single point]	
Cc1ccccc1Nc1sc(C(=O)c2ccc(F)cc2)c(N)c1C(=O)NCCc1ccccc1	inconclusive: 22.4 µM [inhibitor, full curve]	
O=C(O)C1CC=CCC1C(=O)Nc1ccccc1 (stereo unspecified)	inconclusive: 79.4 µM [inhibitor, partial curve]	
COc1ccc(N2C(=O)C(Cl)=C(N3CCCC(C)C3)C2=O)cc1 (stereo unspecified)	inconclusive: 44.7 µM [inhibitor, partial curve]	
CCn1c(C)c(C)c2cc(C(=O)NCc3ccc(N(C)C)cc3)ccc21	active: 22.4 µM	
O=C(Nc1ccc(N2CCOCC2)cc1Cl)C1CCN(C(=O)OCc2ccccc2)CC1	inconclusive: 89.1 µM [inhibitor, partial curve]	
O=C(NCCc1nc2ccccc2n1CCCOc1ccccc1Cl)C1CCCCC1		inactive: -13.8% [at 57.1 µM]
COc1cc(/C=C2/C(=O)N(c3ccc(C)c(C)c3)N=C2C)cc([N+](=O)[O-])c1O	active: 44.7 µM	
Cc1nc2ncccn2c1-c1csc(Nc2ccc(N(C)C)cc2)n1	active: 28.2 µM	
COc1cc(OC)cc(-c2c(-c3ccc(F)cc3)c3cc(-c4cccc5[nH]ccc45)ccc3n2C)c1	inconclusive: 44.7 µM [inhibitor, partial curve]	
COc1ccc(OC)c(NC(=O)C(=S)NC2CCCCC2)c1	inconclusive: 39.8 µM [inhibitor, partial curve]	
COc1ccc(N2CCN(C(=O)c3ccc(C(C)(C)C)cc3)CC2)cc1	active: 56.2 µM	
O=C(Cc1nn[nH]n1)c1ccccc1O	active: 44.7 µM	
CCOc1ccccc1-n1c(=S)sc2c(=O)n(-c3ccccc3)c(=S)[nH]c21	active: 79.4 µM	
Cc1cc2ccccn2c1C(=O)c1ccc(N/N=C/c2ccc(C(=O)O)cc2)c([N+](=O)[O-])c1	inconclusive: 2.82 µM [inhibitor, full curve]	
CCCCC(=O)Nc1nnc(CCOC)s1		inactive: 4.14%
COc1cccc(C2/C(=C(\O)c3ccc4c(c3)OCCO4)C(=O)C(=O)N2CCCn2ccnc2)c1 (stereo unspecified)	active: 63.1 µM	
Fc1ccc(Nc2nc(N/N=C/c3ccco3)nc(N3CCCCC3)n2)cc1	inconclusive: 44.7 µM [inhibitor, partial curve]	
CC1CC(c2ccccc2)n2nc(NC(=O)c3cccs3)nc2N1 (stereo unspecified)	inconclusive: 50.1 µM [inhibitor, partial curve]	
Cc1n[nH]c(=S)n1/N=C/c1ccccc1OCc1ccc(Cl)cc1	active: 50.1 µM	
COc1ccc(CCNC(=O)Cn2c(=O)n(-c3ccc(OC)c(OC)c3)c(=O)c3ccccc32)cc1OC		inactive: -7.51%
COc1cccc(-c2ccc3c(c2)S(=O)(=O)c2cccc(C(=O)O)c2C3=O)c1OC	inconclusive: 100 µM [inhibitor, single point]	
C=CC[n+]1c(-c2ccc(C)cc2)csc1Nc1ccc(NC(C)=O)cc1	inconclusive: 14.1 µM [inhibitor, full curve, poor fit]	

SMILES	Potency	activity change, negative = inhibition
O=C(NCc1ccccn1)c1cc(-c2ccccc2)nc2ccccc12		inactive: -14.5%
COc1cccc(N2CC(O)Cn3c2nc2c3c(=O)n(CCCc3ccccc3)c(=O)n2C)c1 (stereo unspecified)		inactive: -21%
COc1ccccc1OCc1n[nH]c(=S)n1Cc1ccccc1	active: 31.6 µM	
C#Cc1ccc([C@H]2C=C(C(=O)N3CCN(Cc4ccc5c(c4)OCO5)CC3)O[C@@H](OCc3ccc(CO)cc3)C2)cc1	inconclusive: 44.7 µM [inhibitor, partial curve]	
CN1CCc2nc(SCc3ccc(Cl)cc3)c(C#N)c(-c3cccs3)c2C1	inconclusive: 50.1 µM [inhibitor, partial curve]	
CCOc1ccccc1-c1nn2c(Cc3ccccc3)nnc2s1	inconclusive: 50.1 µM [inhibitor, partial curve]	
Cc1cccc2c1NC(=O)C2=O	inconclusive: 14.1 µM [inhibitor, partial curve, poor fit]	
Cc1ccc(Cn2c(O)c(N=NC(=S)Nc3ccccc3F)c3ccccc32)cc1	inconclusive: 10 µM [inhibitor, full curve]	
CCOc1cc(CNC(=O)c2ccc3c(c2)nc2n3CCCCC2)ccc1OC		inactive: -16.9%
Cc1ccc(Cl)cc1NC(=O)c1cc2c(=O)n3cccc(C)c3nc2n1C		inactive: 2.96%
Cc1ccc(/C=N/NC(=O)c2cc(-c3ccccc3)nc3ccccc23)o1	inconclusive: 89.1 µM [inhibitor, partial curve]	
CCN(CC)CCCN1C(=O)C(O)=C(C(=O)c2ccc(C)o2)C1c1ccc(C)o1 (stereo unspecified)	inconclusive: 44.7 µM [inhibitor, partial curve]	
CC1CCN(CCCNC(=O)CN2C(=O)CSc3ccc(S(=O)(=O)N4CCC(C)CC4)cc32)CC1	active: 56.2 µM	
O=C(CSc1ccc(-c2ccccn2)nn1)c1ccccc1	active: 7.08 µM	
CCOc1cccc(/C=C/c2ccc3cccc(O)c3n2)c1O		inactive: -25.4%
Cc1ccc(C(=O)N[C@H](C(=O)OCc2nnc(-c3ccccc3)o2)C(C)C)cc1		inactive: -16.6%
O=C(C1Cc2ccccc2CN1C(=O)c1ccccc1)N1CCN(c2ccccc2)CC1 (stereo unspecified)	inconclusive: 35.5 µM [inhibitor, partial curve]	
CC(=NNC(=S)N1CC2CCC(CC2)C1)c1ccncn1	active: 14.1 µM	
Cc1ccc(OCC(=O)c2c(N)n(C)c(=O)n(C)c2=O)c([N+](=O)[O-])n1	inconclusive: 56.2 µM [inhibitor, partial curve, poor fit]	
CCC1=NN(C(=O)c2cccc(Br)c2)C(O)(c2ccc(Br)cc2)C1 (stereo unspecified)	inconclusive: 39.8 µM [inhibitor, partial curve]	
CN(C)C(=O)c1ccc(NC(=O)c2cc(-n3cnnc3)ccc2Cl)cc1	inconclusive: 28.2 µM [inhibitor, single point]	
CC(C)n1nnnc1SCC(=O)N1CCN(C(=O)c2ccco2)CC1		inactive: -9.29%
CCCN(CCC)S(=O)(=O)c1ccc(C(=O)NCc2n[nH]c(=S)n2-c2ccc(Cl)c(Cl)c2)cc1	inconclusive: 56.2 µM [inhibitor, partial curve]	

Source: PubChem BioAssay AID504339 (National Center for Advancing Translational Sciences (NCATS), 2011)
